Laboratory results from the supplement of paper PMC11876631.
± gives the standard deviation of the averaged measurements. Laboratory Escherichia coli strains with one amino-acid change in an essential protein, pooled on minimal glucose agar with carbenicillin or gentamicin at twice the control MIC (plus kanamycin and chloramphenicol for the plasmids), 48 h. Fold change of barcode share against drug-free plates; higher = less susceptible. Active = above 20 in both replicates (the paper's putatively resistant). '<' = one read or none on drug, '>' = one read or none on a drug-free plate. Shares are relative, so most strains fall below 1 when a few take over. Listed are strains with at least 15 reads on both drug-free plates, and hits; most hits rest on fewer reference reads. Replicate rank correlation about 0.5. Edits are read from barcodes.

Target: Escherichia coli (laboratory strain)
Assay: barcode share on antibiotic plates over drug-free plates; higher = less susceptible
Method: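 A pool of E. coli strains, each edited to carry one amino-acid change in an essential protein, was grown for 48 h on minimal glucose agar with or without antibiotic; strain barcodes were sequenced; mean of two replicates.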

[1] = antibiotic: carbenicillin, 2× MIC (3.1 µg/mL)
[2] = antibiotic: gentamicin, 2× MIC (MIC 0.45 µg/mL)

Protein	fold change of barcode share [1]	fold change of barcode share [2]
der V130W (protein) MVPVVALVGRPNVGKSTLFNRLTRTRDALVADFPGLTRDRKYGRAEIEGREFICIDTGGIDGTEDGVETRMAEQSLLAIEEADVVLFMVDARAGLMPADEAIAKHLRSREKPTFLVANKTDGLDPDQAVWDFYSLGLGEIYPIAASHGRGVLSLLEHVLLPWMEDLAPQEEVDEDAEYWAQFEAEENGEEEEEDDFDPQSLPIKLAIVGRPNVGKSTLTNRILGEERVVVYDMPGTTRDSIYIPMERDGREYVLIDTAGVRKRGKITDAVEKFSVIKTLQAIEDANVVMLVIDAREGISDQDLSLLGFILNSGRSLVIVVNKWDGLSQEVKEQVKETLDFRLGFIDFARVHFISALHGSGVGNLFESVREAYDSSTRRVGTSMLTRIMTMAVEDHQPPLVRGRRVKLKYAHAGGYNPPIVVIHGNQVKDLPDSYKRYLMNYFRKSLDVMGSPIRIQFKEGENPYANKRNTLTPTQMRKRKRLMKHIKKNK	0.207 ± 0.084	< 0.00416
der V130Q (protein) MVPVVALVGRPNVGKSTLFNRLTRTRDALVADFPGLTRDRKYGRAEIEGREFICIDTGGIDGTEDGVETRMAEQSLLAIEEADVVLFMVDARAGLMPADEAIAKHLRSREKPTFLVANKTDGLDPDQAVQDFYSLGLGEIYPIAASHGRGVLSLLEHVLLPWMEDLAPQEEVDEDAEYWAQFEAEENGEEEEEDDFDPQSLPIKLAIVGRPNVGKSTLTNRILGEERVVVYDMPGTTRDSIYIPMERDGREYVLIDTAGVRKRGKITDAVEKFSVIKTLQAIEDANVVMLVIDAREGISDQDLSLLGFILNSGRSLVIVVNKWDGLSQEVKEQVKETLDFRLGFIDFARVHFISALHGSGVGNLFESVREAYDSSTRRVGTSMLTRIMTMAVEDHQPPLVRGRRVKLKYAHAGGYNPPIVVIHGNQVKDLPDSYKRYLMNYFRKSLDVMGSPIRIQFKEGENPYANKRNTLTPTQMRKRKRLMKHIKKNK	0.372 ± 0.08	0.00688 ± 0.0045
der V130D (protein) MVPVVALVGRPNVGKSTLFNRLTRTRDALVADFPGLTRDRKYGRAEIEGREFICIDTGGIDGTEDGVETRMAEQSLLAIEEADVVLFMVDARAGLMPADEAIAKHLRSREKPTFLVANKTDGLDPDQAVDDFYSLGLGEIYPIAASHGRGVLSLLEHVLLPWMEDLAPQEEVDEDAEYWAQFEAEENGEEEEEDDFDPQSLPIKLAIVGRPNVGKSTLTNRILGEERVVVYDMPGTTRDSIYIPMERDGREYVLIDTAGVRKRGKITDAVEKFSVIKTLQAIEDANVVMLVIDAREGISDQDLSLLGFILNSGRSLVIVVNKWDGLSQEVKEQVKETLDFRLGFIDFARVHFISALHGSGVGNLFESVREAYDSSTRRVGTSMLTRIMTMAVEDHQPPLVRGRRVKLKYAHAGGYNPPIVVIHGNQVKDLPDSYKRYLMNYFRKSLDVMGSPIRIQFKEGENPYANKRNTLTPTQMRKRKRLMKHIKKNK	0.297 ± 0.18	< 0.0039
der V130P (protein) MVPVVALVGRPNVGKSTLFNRLTRTRDALVADFPGLTRDRKYGRAEIEGREFICIDTGGIDGTEDGVETRMAEQSLLAIEEADVVLFMVDARAGLMPADEAIAKHLRSREKPTFLVANKTDGLDPDQAVPDFYSLGLGEIYPIAASHGRGVLSLLEHVLLPWMEDLAPQEEVDEDAEYWAQFEAEENGEEEEEDDFDPQSLPIKLAIVGRPNVGKSTLTNRILGEERVVVYDMPGTTRDSIYIPMERDGREYVLIDTAGVRKRGKITDAVEKFSVIKTLQAIEDANVVMLVIDAREGISDQDLSLLGFILNSGRSLVIVVNKWDGLSQEVKEQVKETLDFRLGFIDFARVHFISALHGSGVGNLFESVREAYDSSTRRVGTSMLTRIMTMAVEDHQPPLVRGRRVKLKYAHAGGYNPPIVVIHGNQVKDLPDSYKRYLMNYFRKSLDVMGSPIRIQFKEGENPYANKRNTLTPTQMRKRKRLMKHIKKNK	0.386 ± 0.13	0.00445 ± 0.0025
der I318P (protein) MVPVVALVGRPNVGKSTLFNRLTRTRDALVADFPGLTRDRKYGRAEIEGREFICIDTGGIDGTEDGVETRMAEQSLLAIEEADVVLFMVDARAGLMPADEAIAKHLRSREKPTFLVANKTDGLDPDQAVVDFYSLGLGEIYPIAASHGRGVLSLLEHVLLPWMEDLAPQEEVDEDAEYWAQFEAEENGEEEEEDDFDPQSLPIKLAIVGRPNVGKSTLTNRILGEERVVVYDMPGTTRDSIYIPMERDGREYVLIDTAGVRKRGKITDAVEKFSVIKTLQAIEDANVVMLVIDAREGISDQDLSLLGFILNSGRSLVPVVNKWDGLSQEVKEQVKETLDFRLGFIDFARVHFISALHGSGVGNLFESVREAYDSSTRRVGTSMLTRIMTMAVEDHQPPLVRGRRVKLKYAHAGGYNPPIVVIHGNQVKDLPDSYKRYLMNYFRKSLDVMGSPIRIQFKEGENPYANKRNTLTPTQMRKRKRLMKHIKKNK	0.303 ± 0.063	0.00972 ± 0.011
acpS I124A (protein) MAILGLGTDIVEIARIEAVIARSGDRLARRVLSDNEWAIWKTHHQPVRFLAKRFAVKEAAAKAFGTGIRNGLAFNQFEVFNDELGKPRLRLWGEALKLAEKLGVANMHVTLADERHYACATVIAES	0.368 ± 0.045	
der V317A (protein) MVPVVALVGRPNVGKSTLFNRLTRTRDALVADFPGLTRDRKYGRAEIEGREFICIDTGGIDGTEDGVETRMAEQSLLAIEEADVVLFMVDARAGLMPADEAIAKHLRSREKPTFLVANKTDGLDPDQAVVDFYSLGLGEIYPIAASHGRGVLSLLEHVLLPWMEDLAPQEEVDEDAEYWAQFEAEENGEEEEEDDFDPQSLPIKLAIVGRPNVGKSTLTNRILGEERVVVYDMPGTTRDSIYIPMERDGREYVLIDTAGVRKRGKITDAVEKFSVIKTLQAIEDANVVMLVIDAREGISDQDLSLLGFILNSGRSLAIVVNKWDGLSQEVKEQVKETLDFRLGFIDFARVHFISALHGSGVGNLFESVREAYDSSTRRVGTSMLTRIMTMAVEDHQPPLVRGRRVKLKYAHAGGYNPPIVVIHGNQVKDLPDSYKRYLMNYFRKSLDVMGSPIRIQFKEGENPYANKRNTLTPTQMRKRKRLMKHIKKNK	0.219 ± 0.022	0.00402 ± 0.0033
der V317Q (protein) MVPVVALVGRPNVGKSTLFNRLTRTRDALVADFPGLTRDRKYGRAEIEGREFICIDTGGIDGTEDGVETRMAEQSLLAIEEADVVLFMVDARAGLMPADEAIAKHLRSREKPTFLVANKTDGLDPDQAVVDFYSLGLGEIYPIAASHGRGVLSLLEHVLLPWMEDLAPQEEVDEDAEYWAQFEAEENGEEEEEDDFDPQSLPIKLAIVGRPNVGKSTLTNRILGEERVVVYDMPGTTRDSIYIPMERDGREYVLIDTAGVRKRGKITDAVEKFSVIKTLQAIEDANVVMLVIDAREGISDQDLSLLGFILNSGRSLQIVVNKWDGLSQEVKEQVKETLDFRLGFIDFARVHFISALHGSGVGNLFESVREAYDSSTRRVGTSMLTRIMTMAVEDHQPPLVRGRRVKLKYAHAGGYNPPIVVIHGNQVKDLPDSYKRYLMNYFRKSLDVMGSPIRIQFKEGENPYANKRNTLTPTQMRKRKRLMKHIKKNK	0.255 ± 0.17	0.00516 ± 0.002
der V317D (protein) MVPVVALVGRPNVGKSTLFNRLTRTRDALVADFPGLTRDRKYGRAEIEGREFICIDTGGIDGTEDGVETRMAEQSLLAIEEADVVLFMVDARAGLMPADEAIAKHLRSREKPTFLVANKTDGLDPDQAVVDFYSLGLGEIYPIAASHGRGVLSLLEHVLLPWMEDLAPQEEVDEDAEYWAQFEAEENGEEEEEDDFDPQSLPIKLAIVGRPNVGKSTLTNRILGEERVVVYDMPGTTRDSIYIPMERDGREYVLIDTAGVRKRGKITDAVEKFSVIKTLQAIEDANVVMLVIDAREGISDQDLSLLGFILNSGRSLDIVVNKWDGLSQEVKEQVKETLDFRLGFIDFARVHFISALHGSGVGNLFESVREAYDSSTRRVGTSMLTRIMTMAVEDHQPPLVRGRRVKLKYAHAGGYNPPIVVIHGNQVKDLPDSYKRYLMNYFRKSLDVMGSPIRIQFKEGENPYANKRNTLTPTQMRKRKRLMKHIKKNK	0.707 ± 0.35	0.0106 ± 0.011
der I422A (protein) MVPVVALVGRPNVGKSTLFNRLTRTRDALVADFPGLTRDRKYGRAEIEGREFICIDTGGIDGTEDGVETRMAEQSLLAIEEADVVLFMVDARAGLMPADEAIAKHLRSREKPTFLVANKTDGLDPDQAVVDFYSLGLGEIYPIAASHGRGVLSLLEHVLLPWMEDLAPQEEVDEDAEYWAQFEAEENGEEEEEDDFDPQSLPIKLAIVGRPNVGKSTLTNRILGEERVVVYDMPGTTRDSIYIPMERDGREYVLIDTAGVRKRGKITDAVEKFSVIKTLQAIEDANVVMLVIDAREGISDQDLSLLGFILNSGRSLVIVVNKWDGLSQEVKEQVKETLDFRLGFIDFARVHFISALHGSGVGNLFESVREAYDSSTRRVGTSMLTRIMTMAVEDHQPPLVRGRRVKLKYAHAGGYNPPIVVAHGNQVKDLPDSYKRYLMNYFRKSLDVMGSPIRIQFKEGENPYANKRNTLTPTQMRKRKRLMKHIKKNK	0.527 ± 0.18	0.0168 ± 0.016
acpS I124W (protein) MAILGLGTDIVEIARIEAVIARSGDRLARRVLSDNEWAIWKTHHQPVRFLAKRFAVKEAAAKAFGTGIRNGLAFNQFEVFNDELGKPRLRLWGEALKLAEKLGVANMHVTLADERHYACATVIWES	0.285 ± 0.027	0.0166 ± 0.015
der M88A (protein) MVPVVALVGRPNVGKSTLFNRLTRTRDALVADFPGLTRDRKYGRAEIEGREFICIDTGGIDGTEDGVETRMAEQSLLAIEEADVVLFAVDARAGLMPADEAIAKHLRSREKPTFLVANKTDGLDPDQAVVDFYSLGLGEIYPIAASHGRGVLSLLEHVLLPWMEDLAPQEEVDEDAEYWAQFEAEENGEEEEEDDFDPQSLPIKLAIVGRPNVGKSTLTNRILGEERVVVYDMPGTTRDSIYIPMERDGREYVLIDTAGVRKRGKITDAVEKFSVIKTLQAIEDANVVMLVIDAREGISDQDLSLLGFILNSGRSLVIVVNKWDGLSQEVKEQVKETLDFRLGFIDFARVHFISALHGSGVGNLFESVREAYDSSTRRVGTSMLTRIMTMAVEDHQPPLVRGRRVKLKYAHAGGYNPPIVVIHGNQVKDLPDSYKRYLMNYFRKSLDVMGSPIRIQFKEGENPYANKRNTLTPTQMRKRKRLMKHIKKNK	0.502 ± 0.37	0.0102 ± 0.0061
